Source: article PMC4336329 (PLoS ONE, 2015)
About 14,000 (4.5%) of roughly 310,000 compounds showed an effect of 50% or more. The effect is printed as a negative number. The list shows a part of the results.

target: human ether-à-go-go-related gene (hERG) potassium channel (human, UniProt Q12809); test: primary screen, population patch clamp on CHO cells stably expressing hERG
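Note: peak tail current of the secondary pulse compared with the same well before compound.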

Chain of human ether-à-go-go-related gene (hERG) potassium channel (Q12809 whole entry, looked up): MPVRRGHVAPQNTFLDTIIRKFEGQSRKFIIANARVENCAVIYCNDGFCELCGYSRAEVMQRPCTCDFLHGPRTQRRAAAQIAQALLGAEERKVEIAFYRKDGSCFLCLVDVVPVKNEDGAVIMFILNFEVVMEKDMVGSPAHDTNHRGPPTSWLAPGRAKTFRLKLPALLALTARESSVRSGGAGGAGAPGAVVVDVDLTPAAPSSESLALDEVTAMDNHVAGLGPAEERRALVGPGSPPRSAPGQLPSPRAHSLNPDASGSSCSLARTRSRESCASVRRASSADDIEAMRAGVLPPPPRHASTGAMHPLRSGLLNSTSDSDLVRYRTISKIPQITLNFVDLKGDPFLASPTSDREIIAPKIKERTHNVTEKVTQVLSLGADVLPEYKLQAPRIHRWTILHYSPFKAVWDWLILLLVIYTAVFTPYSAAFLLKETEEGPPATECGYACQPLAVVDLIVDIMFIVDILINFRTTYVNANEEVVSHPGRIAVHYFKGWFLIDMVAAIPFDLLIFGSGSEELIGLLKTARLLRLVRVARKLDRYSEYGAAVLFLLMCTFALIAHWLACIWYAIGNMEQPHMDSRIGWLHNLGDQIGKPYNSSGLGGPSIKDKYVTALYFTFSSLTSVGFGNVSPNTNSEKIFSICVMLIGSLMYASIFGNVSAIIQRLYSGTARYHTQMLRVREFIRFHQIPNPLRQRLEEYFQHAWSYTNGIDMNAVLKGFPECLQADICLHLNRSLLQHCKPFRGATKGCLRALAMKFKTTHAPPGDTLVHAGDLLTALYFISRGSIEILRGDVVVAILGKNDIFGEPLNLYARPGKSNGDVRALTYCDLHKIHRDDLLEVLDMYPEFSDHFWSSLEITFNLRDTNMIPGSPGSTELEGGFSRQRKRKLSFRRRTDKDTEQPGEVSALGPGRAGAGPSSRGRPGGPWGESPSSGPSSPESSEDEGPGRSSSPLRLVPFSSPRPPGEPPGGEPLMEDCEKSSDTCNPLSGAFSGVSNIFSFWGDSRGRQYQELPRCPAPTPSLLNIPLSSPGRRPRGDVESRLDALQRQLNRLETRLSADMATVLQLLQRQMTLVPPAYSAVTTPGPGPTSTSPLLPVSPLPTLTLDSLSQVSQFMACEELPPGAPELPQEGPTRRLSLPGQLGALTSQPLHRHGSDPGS

| Compound | hERG current change (%, negative = inhibition) at 10uM |
| --- | --- |
| C[C@H]1[C@H](C)CC[C@]2(C)CC[C@]3(C)C(=CC[C@@H]4[C@@]5(C)CC[C@@H](O)[C@](C)(C(=O)O)[C@@H]5CC[C@]43C)[C@H]12 | 11.6% |
| CC(NC(=O)C(=O)Nc1nccs1)c1ccccc1 (stereo not drawn) | 15.4% |
| COC(=O)c1[nH]c2ccc(C)cc2c1NC(=O)C1=COCCO1 | 4.02% |
| COc1cccc(-c2csc(N3CCN(C(=O)Nc4ccc(Cl)cc4)CC3)n2)c1 | 9.04% |
| O=C(NCCc1ccc(F)cc1)N1CCOCC1 | 6.53% |
| O=C(CCc1cnccn1)NC1CCCc2c1cnn2-c1ccc(F)cc1F (stereo not drawn) | -3.72% |
| CCN(CC(=O)Nc1ccc(NC(C)=O)cc1)C(=O)c1c(-c2c(F)cccc2Cl)noc1C | 23.2% |
| O=C(Nc1ccccc1C(=O)O)c1ccc(NC(=O)C2CC2)cc1 | 12.2% |
| Nc1nc(Nc2ccc(Cl)cc2)nc(NCCO)c1[N+](=O)[O-] | 1.44% |
| COc1cc(/C=N/NC(=O)Cn2cnc3ccccc3c2=O)ccc1O | 34.3% |
| CO/N=C(/CS(=O)(=O)c1ccc(C)cc1)c1ccc(OC)cc1 | 5.88% |
| Cc1cc2ncn(-c3ncnc4sc(C)c(C)c34)c2cc1C | -21.2% |
| CC(C)NC(=O)NC1C2CC3CC(C2)CC1C3 (stereo not drawn) | 8.3% |
| O=C(C1CCN(S(=O)(=O)c2ccccc2F)CC1)N1CCc2ccccc2C1 | -27.8% |
| COCCCn1c(-c2ccc(S(=O)(=O)N3CCOCC3)cc2)csc1=Nc1ccccc1 | -11% |
| NS(=O)(=O)c1ccc(CCNC(=O)c2ccc(Cl)s2)cc1 | 1.25% |
| Cc1ccc(-c2ccc(/C=N/N=C3/NC(=O)C(CC(=O)O)S3)o2)c([N+](=O)[O-])c1 (stereo not drawn) | 11.1% |
| CC(=O)c1c(C)[nH]c(C(=O)Nc2cccc(C)n2)c1C | 9.94% |
| Cc1cccc(NC(=S)N2CCC(O)CC2)c1C | 10.4% |
| C[C@H](NC(=O)N1CCn2c1nc1ccccc12)C(=O)NCc1ccccc1 | -13.6% |
| COC(=O)[C@H](Cc1ccccc1)NC(=O)Nc1ccc(S(N)(=O)=O)cc1 | 0.187% |
| O=C(COc1ccc(Br)cc1Cl)NC(=O)NCc1ccccc1 | -0.783% |
| COc1ccc(NC(=O)CCNS(=O)(=O)c2ccc3c(c2)CC(C)N3C(C)=O)cc1 (stereo not drawn) | -2.85% |
| COc1ccc(C)cc1S(=O)(=O)N(CC(=O)Nc1cccc([N+](=O)[O-])c1)c1ccccc1 | -2.22% |
